# The other results are listed elsewhere or left out. No stated cut-off is given here; in the data, active = 3.2 or more and inactive = the rest. Only a few entries rise above the background.
# B1: HLA-DRB1_Y107_A103R (peptide)
# chain: ARVDTYCRHNY
# B2: HNRNPH3_Y159 (peptide)
# chain: GGYNNYGYGND
# B3: HLA-E_Y341 (peptide)
# chain: GKGGSYSKAEW
# B4: HPRT1_Y81 (peptide)
# chain: ADLLDYIKALN
# B5: HLA-B_Y123_V127L (peptide)
# chain: TLQSMYGCDLG
# B6: HPRT1_Y198_D201Y (peptide)
# chain: LDYNEYFRYLN
# B7: HLA-DRB1_Y107_A103E (peptide)
# chain: AEVDTYCRHNY
# B8: HOXB7_Y6_T9A (peptide)
# chain: MSSLYYANALF
# B9: HLA-C_Y137_S140F (peptide)
# chain: RLLRGYDQFAY
# B10: HLA-DRB1_Y107_A103R_YF (peptide)
# chain: ARVDTYCRHNF
# B11: HNRNPH3_Y159_N163S (peptide)
# chain: GGYNNYGYGSD
# B12: HLA-DRB1_Y107 (peptide)
# chain: AAVDTYCRHNY
# B13: HSD17B4_Y143 (peptide)
# chain: MKKQKYGRIIM
# B14: HP_Y125 (peptide)
# chain: EGDGVYTLNNE
# B15: HLA-DRB1_Y107_A103L (peptide)
# chain: ALVDTYCRHNY
# B16: HLA-DPB1_Y59_F64Y_YF (peptide)
# chain: LERFIYNREEF
# B17: HLA-C_Y183_L180W (peptide)
# chain: EQWRAYLEGTC
# B18: HS3ST5_Y244_I247N (peptide)
# chain: ERWLKYFPNEQ
# B19: HLA-B_Y137_H137Y (peptide)
# chain: RLLRGYDQYAY
# Molecular target: SHP2 C-SH2 domain E139D
# Test: enrichment score (SH2-bound / input frequency) (ratio); bacterial display of known human phosphotyrosine sites (pTyr-Var adds point mutants) read by sequencing; higher = stronger binding; tyrosines were phosphorylated by kinases first
# Details: peptide library: pTyr-Var
# 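Further: displayed peptides selected on beads carrying the immobilized SH2 domain, with library peptides lacking any tyrosine serving as negative controls.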
row,Binder,enrichment score
1,B1,inactive: 1.75
2,B2,inactive: 0.674
3,B3,inactive: 0.676
4,B4,inactive: 1.17
5,B5,inactive: 0.981
6,B6,inactive: 1.12
7,B7,inactive: 1.66
8,B8,inactive: 1.98
9,B9,inactive: 1.36
10,B10,inactive: 1.55
11,B11,inactive: 0.771
12,B12,inactive: 1.27
13,B13,active: 3.72
14,B14,inactive: 0.699
15,B15,inactive: 1.56
16,B16,inactive: 1.02
17,B17,inactive: 0.83
18,B18,inactive: 1.2
19,B19,inactive: 1.23

# Molecular target: SHP2 C-SH2 domain wild-type
# Test: as above
# Details: peptide library: pTyr-Var
row,Binder,enrichment score
1,B1,inactive: 1.91
2,B2,inactive: 0.696
3,B3,inactive: 0.543
4,B4,inactive: 1.23
5,B5,inactive: 0.96
6,B6,inactive: 0.596
7,B7,inactive: 1.19
8,B8,inactive: 1.8
9,B9,inactive: 1.3
10,B10,inactive: 1.89
11,B11,inactive: 0.66
12,B12,inactive: 1.39
13,B13,inactive: 2.54
14,B14,inactive: 0.518
15,B15,inactive: 1.47
16,B16,inactive: 0.922
17,B17,inactive: 0.961
18,B18,inactive: 1.07
19,B19,inactive: 1.07

# Molecular target: SHP2 N-SH2 domain L43F
# Test: as above
# Details: peptide library: pTyr-Var
row,Binder,enrichment score
1,B1,inactive: 1.56
2,B2,inactive: 0.74
3,B3,inactive: 0.511
4,B4,inactive: 1.19
5,B5,inactive: 0.982
6,B6,inactive: 0.595
7,B7,inactive: 1.76
8,B8,active: 5.39
9,B9,inactive: 1.27
10,B10,inactive: 1.57
11,B11,inactive: 0.653
12,B12,inactive: 1.16
13,B13,inactive: 2.72
14,B14,inactive: 0.521
15,B15,inactive: 1.47
16,B16,inactive: 1.16
17,B17,inactive: 0.781
18,B18,inactive: 0.786
19,B19,inactive: 1.1

# Molecular target: SHP2 N-SH2 domain T42A
# Test: as above
# Details: peptide library: pTyr-Var
row,Binder,enrichment score
1,B1,inactive: 1.51
2,B2,inactive: 0.702
3,B3,inactive: 0.528
4,B4,inactive: 1.09
5,B5,inactive: 0.829
6,B6,inactive: 0.995
7,B7,inactive: 1.32
8,B8,active: 5.74
9,B9,inactive: 0.989
10,B10,inactive: 1.45
11,B11,inactive: 0.714
12,B12,inactive: 1.19
13,B13,inactive: 2.34
14,B14,inactive: 0.36
15,B15,inactive: 1.42
16,B16,inactive: 0.853
17,B17,inactive: 0.8
18,B18,inactive: 0.851
19,B19,inactive: 0.841

# Molecular target: SHP2 N-SH2 domain T52S
# Test: as above
# Details: peptide library: pTyr-Var
row,Binder,enrichment score
1,B1,inactive: 2.08
2,B2,inactive: 0.685
3,B3,inactive: 0.59
4,B4,inactive: 1.07
5,B5,inactive: 0.819
6,B6,inactive: 0.923
7,B7,inactive: 1.37
8,B8,active: 6.45
9,B9,inactive: 1.04
10,B10,inactive: 1.75
11,B11,inactive: 0.712
12,B12,inactive: 1.13
13,B13,inactive: 2.93
14,B14,inactive: 0.461
15,B15,inactive: 1.49
16,B16,inactive: 1.17
17,B17,inactive: 0.746
18,B18,inactive: 0.931
19,B19,inactive: 1.14

# Molecular target: SHP2 N-SH2 domain wild-type
# Test: as above
# Details: peptide library: pTyr-Var
row,Binder,enrichment score
1,B1,inactive: 1.9
2,B2,inactive: 0.756
3,B3,inactive: 0.61
4,B4,inactive: 1.24
5,B5,inactive: 1.14
6,B6,inactive: 0.79
7,B7,inactive: 1.7
8,B8,inactive: 2.28
9,B9,inactive: 1.24
10,B10,inactive: 1.61
11,B11,inactive: 1.03
12,B12,inactive: 1.24
13,B13,inactive: 2.32
14,B14,inactive: 0.742
15,B15,inactive: 1.66
16,B16,inactive: 1
17,B17,inactive: 1.15
18,B18,inactive: 0.872
19,B19,inactive: 1.17

# From the supplement of paper PMC10369915
